Data as given in paper PMC4336329 (PLoS ONE, 2015).
Screen size: about 310,000 compounds; about 14,000 (4.5%) showed an effect of 50% or more. The effect is printed as a negative number. The list shows a part of the results.

Molecular target: human ether-à-go-go-related gene (hERG) potassium channel (human, UniProt Q12809)
Test: primary screen, population patch clamp on CHO cells stably expressing hERG
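Further: peak tail current of the secondary pulse compared with the same well before compound.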

Chain of human ether-à-go-go-related gene (hERG) potassium channel (Q12809 whole entry, looked up): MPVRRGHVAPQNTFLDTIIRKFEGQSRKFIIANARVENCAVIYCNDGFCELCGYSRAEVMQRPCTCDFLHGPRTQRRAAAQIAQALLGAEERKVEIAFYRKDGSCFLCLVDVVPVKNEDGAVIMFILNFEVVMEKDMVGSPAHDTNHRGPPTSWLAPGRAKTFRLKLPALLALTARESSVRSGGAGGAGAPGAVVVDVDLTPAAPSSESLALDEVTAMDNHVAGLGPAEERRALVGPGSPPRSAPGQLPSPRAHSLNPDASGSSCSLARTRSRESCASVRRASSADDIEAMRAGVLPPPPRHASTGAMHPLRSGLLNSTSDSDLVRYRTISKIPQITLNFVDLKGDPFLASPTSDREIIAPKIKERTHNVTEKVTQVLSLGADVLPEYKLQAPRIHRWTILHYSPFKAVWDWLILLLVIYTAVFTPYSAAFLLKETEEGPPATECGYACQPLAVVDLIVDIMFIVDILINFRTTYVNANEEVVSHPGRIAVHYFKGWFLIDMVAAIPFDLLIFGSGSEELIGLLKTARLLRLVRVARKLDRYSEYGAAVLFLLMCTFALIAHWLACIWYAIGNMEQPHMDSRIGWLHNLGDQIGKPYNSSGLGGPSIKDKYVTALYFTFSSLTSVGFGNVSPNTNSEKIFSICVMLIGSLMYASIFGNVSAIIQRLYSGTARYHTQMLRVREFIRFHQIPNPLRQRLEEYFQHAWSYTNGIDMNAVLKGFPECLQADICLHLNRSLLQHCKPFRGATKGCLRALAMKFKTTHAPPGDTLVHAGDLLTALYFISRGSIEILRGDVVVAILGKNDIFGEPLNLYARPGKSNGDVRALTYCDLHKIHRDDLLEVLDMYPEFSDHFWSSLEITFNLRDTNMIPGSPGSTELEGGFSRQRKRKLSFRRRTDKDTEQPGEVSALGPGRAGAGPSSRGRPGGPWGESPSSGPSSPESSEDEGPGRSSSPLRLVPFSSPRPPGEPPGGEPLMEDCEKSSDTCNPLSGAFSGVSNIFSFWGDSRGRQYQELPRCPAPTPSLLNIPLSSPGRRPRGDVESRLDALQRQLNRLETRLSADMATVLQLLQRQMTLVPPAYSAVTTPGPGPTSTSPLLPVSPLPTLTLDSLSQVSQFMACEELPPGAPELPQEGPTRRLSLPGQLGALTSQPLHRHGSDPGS

Row | SMILES | hERG current change (%, negative = inhibition) at 10uM
1 | COc1ccc(OC)c(NC(=O)CSc2nnc(CCCO)n2-c2ccccc2)c1 | -16.5%
2 | O=C(Nc1ccncc1)Nc1ccc(Cl)cc1Cl | 30.3%
3 | COc1ccc(CNC2CC(C)N(C)CC2C)cc1OC.Cl (centres unmarked) | 12.9%
4 | O=C(NCc1ccc(F)cc1)C(=O)NCC1OCCN1C(=O)c1ccc(Cl)cc1 (centres unmarked) | -43.2%
5 | Cc1ccc(NC(=S)Nc2ncccc2C)c(C)c1 | 3.44%
6 | CSc1cccc(NC(=O)c2ccco2)c1 | -7.24%
7 | O=C(COc1ccc(S(=O)(=O)N2CCOCC2)cc1Cl)NCCCn1ccnc1 | 11.1%
8 | c1coc(C2Nc3cccc4cccc(c34)N2)c1 | 5.08%
9 | CCS(=O)(=O)c1c(S(=O)(=O)CC)c2ccccn2c1C(N)=O | 31.8%
10 | COc1ccccc1NS(=O)(=O)c1cccc(C(=O)NNC(=O)c2ccc(O)c(Cl)c2)c1 | -12.3%
11 | Cc1cccc(Cl)c1NC(=O)N1CCCN(c2ncccc2[N+](=O)[O-])CC1 | -17%
12 | Cc1[nH]n(-c2cccc(Cl)c2)c(=O)c1C=NCC(C)C | 6.48%
13 | O=C(COC(=O)Cc1cccc2ccccc12)Nc1ccccc1-c1ccccc1 | 9.26%
14 | COc1ccc(NC(=O)CN2C(=O)COc3ccc(S(=O)(=O)N4CCCCC4)cc32)cc1OC | 5.18%
15 | CCCc1nn(C)c(C(=O)Nc2cccc(Cl)c2)c1Cl | 4.22%
16 | O=C(O)CC(CC(=O)N1CCOCC1)c1ccccc1 (centres unmarked) | 9.58%
17 | O=C(Nc1ccccc1F)C1CCCN(S(=O)(=O)c2ccccc2)C1 (centres unmarked) | -10.3%
18 | Cc1nc2cccnc2nc1C | -0.447%
19 | O=C(CCC(=O)OCC(=O)c1ccc([N+](=O)[O-])cc1)Nc1ccccc1Cl | 4.2%
20 | CCOC(=O)CC(=O)Nc1nnc(C(C)C)s1 | 18.4%
21 | CCC(=O)Nc1nnc(SCC(=O)Nc2cccc(Cl)c2)s1 | -41.5%
22 | CC(=O)NCCN1C(=O)S/C(=C\c2cccs2)C1=O | -4.53%
23 | Clc1ccc2oc(-c3ccccc3)nc2c1 | 8.2%
24 | CCOCCn1ccc2c(OCC(=O)Nc3ccc(OC)cc3OC)cccc2c1=O | 6.18%
25 | COc1ccc(-c2sc(Nc3ccccc3)n[n+]2-c2ccccc2)cc1Br.[Cl-] | -48.7%
26 | Cc1cccc(-c2noc(CCCC(=O)NC3CCCCC3)n2)c1 | 11.3%
